Assay results from PMC4336329 (PLoS ONE, 2015).
Hit rate of the full screen: of about 310,000 compounds, about 2,200 (0.71%) showed an effect of 50% or more. The effect is printed as a negative number. The list shows a part of the results.

Target: human ether-à-go-go-related gene (hERG) potassium channel (human, UniProt Q12809)
Test: primary screen, population patch clamp on CHO cells stably expressing hERG

Sequence of human ether-à-go-go-related gene (hERG) potassium channel (Q12809 whole entry, looked up): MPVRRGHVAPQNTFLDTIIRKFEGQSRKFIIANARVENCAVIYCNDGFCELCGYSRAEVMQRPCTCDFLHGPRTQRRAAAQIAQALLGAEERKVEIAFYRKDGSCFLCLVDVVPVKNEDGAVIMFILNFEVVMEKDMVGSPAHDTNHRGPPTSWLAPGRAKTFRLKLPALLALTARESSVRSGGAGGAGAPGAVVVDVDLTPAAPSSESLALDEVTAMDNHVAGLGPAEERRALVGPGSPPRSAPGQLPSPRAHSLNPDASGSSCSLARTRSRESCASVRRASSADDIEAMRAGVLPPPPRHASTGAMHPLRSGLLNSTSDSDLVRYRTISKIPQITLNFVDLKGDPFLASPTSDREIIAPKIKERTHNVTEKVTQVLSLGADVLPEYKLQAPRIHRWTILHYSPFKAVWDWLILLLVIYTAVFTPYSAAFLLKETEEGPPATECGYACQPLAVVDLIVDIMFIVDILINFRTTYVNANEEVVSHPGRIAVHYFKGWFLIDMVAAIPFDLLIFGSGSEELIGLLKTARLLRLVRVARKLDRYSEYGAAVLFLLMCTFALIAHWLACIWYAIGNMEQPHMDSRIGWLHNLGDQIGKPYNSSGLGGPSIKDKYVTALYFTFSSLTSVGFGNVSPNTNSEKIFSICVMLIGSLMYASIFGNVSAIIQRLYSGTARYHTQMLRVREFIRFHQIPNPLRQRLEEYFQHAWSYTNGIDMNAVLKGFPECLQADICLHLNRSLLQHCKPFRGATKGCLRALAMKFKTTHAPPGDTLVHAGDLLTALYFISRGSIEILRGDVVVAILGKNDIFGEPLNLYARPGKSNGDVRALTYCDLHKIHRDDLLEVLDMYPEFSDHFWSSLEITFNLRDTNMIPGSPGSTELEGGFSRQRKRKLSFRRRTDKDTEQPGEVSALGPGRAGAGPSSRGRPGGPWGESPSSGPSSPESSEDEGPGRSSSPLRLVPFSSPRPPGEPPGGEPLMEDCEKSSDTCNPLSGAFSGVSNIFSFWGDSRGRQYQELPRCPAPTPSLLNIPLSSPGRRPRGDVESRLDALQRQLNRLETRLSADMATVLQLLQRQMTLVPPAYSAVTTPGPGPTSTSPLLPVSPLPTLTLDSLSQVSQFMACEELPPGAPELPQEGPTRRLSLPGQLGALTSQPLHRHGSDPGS

Compound	hERG current change (%, negative = inhibition) at 1uM [%]
CC(NC(=O)COC(=O)/C=C/c1ccco1)c1ccccc1 (stereo not shown)	8.61
O=C(NC1CCCCCCC1)c1ccc(S(=O)(=O)N2CCCC2)cc1	10.8
Cc1cc(N(C)C)c(C#N)c(N2CCCCC2)n1	6.47
Cc1cc(/C=C2\NC(=S)N(C)C2=O)ccc1N1CCCC1	15
COC(=O)CSc1nnc(COc2cccc3ccccc23)o1	14.7
Cc1cccc(N2C(=O)CC(Sc3nnc(C)s3)C2=O)c1 (stereo not shown)	13.5
Cc1ccc(S(=O)(=O)N2CCC(=O)N(CCOCc3cccc(C(F)(F)F)c3)CC2)cc1	1.61
Cc1ccc(CCCOC(=O)CN2CCCCC2)cc1	1.99
O=C(CCc1ccccc1)Nc1nc2n(n1)C(c1ccc(Cl)cc1)CC(=O)N2 (stereo not shown)	4.88
Cc1ccc(SCC(=O)NC2CC3CCC(C2)N3C)cc1 (stereo not shown)	8.52
Cc1c([C@H]2[C@@H](CC#N)C2(C)C)c2ccccc2n1C	-2.83
CSC1=NCCCN1C(=O)c1c(-c2ccccc2Cl)noc1C	8.75
Cc1ccc(NC(=O)C2CCCN2C(=O)NC2CCCCC2)cc1C (stereo not shown)	8.06
c1ccc(CSc2ccc(-c3ccc4c(c3)OCO4)nn2)cc1	9.42
COc1cc(NC(=O)CN2CCN(c3ccccn3)CC2)cc(OC)c1OC	11.6
COc1ccc(-c2c[n+]3c(n2-c2ccc(C)cc2)CCCCC3)cc1.[Br-]	-2.01
Cc1nnc(Nc2ccc(C(=O)NCCO)cc2)c2ccccc12	10.2
COCCNCCCCOc1c(Cl)cc(C)cc1Br	3.97
CCN(CC)C(=O)CSc1nnc(COc2ccccc2)n1CC	8.23
Cc1cccn2c(=O)c(C(=O)NCCCN3CCCCC3C)c(O)nc12 (stereo not shown)	9.97

Compound	hERG current change (%, negative = inhibition) at 1uM [%]
COCCNC(=O)C(c1ccc(F)cc1)N(CCOC)C(=O)CCC(=O)Nc1nccs1 (stereo not shown)	1.04
COc1ccc(/C(N)=N/OC(=O)c2cccs2)cc1	18.5
CCCC(=O)N=c1sc2c(OC)ccc(OC)c2n1C	8.85
COc1ccc(C2CC(=O)Oc3c2c(=O)n(C)c2ccccc32)c(OC)c1OC (stereo not shown)	15.3
O=C(c1ccc[nH]c1=S)N1CCN(S(=O)(=O)c2ccc(Br)cc2Cl)CC1	6.98
Cc1nc2c(c(=O)c3ccccc3n2C)c(=O)n1-c1ccc(F)cc1	4.74
O=C(Cn1cc(C=C2C(=O)NC(=O)NC2=O)c2ccccc21)NCC1CCCO1 (stereo not shown)	15.8
CC(C)CCc1c(O)nc(SCC(C)C)[nH]c1=O	6.91
COc1ccccc1CNC(=O)/C=C/c1cc2c(cc1Br)OCO2	13.4
CC(=O)c1ccc(NC(=O)C2=CC(c3ccco3)=NS(=O)(=O)N2C)cc1	13
COc1ccc(S(=O)(=O)NCC(c2cccnc2)N2CCN(Cc3ccccc3)CC2)cc1C (stereo not shown)	-65.5
COc1ccc(-n2c(O)c(C(C)=NCc3ccco3)c(=O)[nH]c2=O)cc1	-5.52
O=C(Nc1cc(C(F)(F)F)ccc1-n1cncn1)c1ccc(F)cc1Cl	4.22
CC(C)c1ccccc1NC(=O)CNCCc1ccc(C(F)(F)F)cc1.O=C(O)C(=O)O	5.68
O=C(COC(=O)c1cnccn1)NCc1ccc2c(c1)OCO2	10.9
O=C(NCCc1ccco1)C(=O)NCC1OCCCN1S(=O)(=O)c1ccccc1 (stereo not shown)	13.4
COc1ccc(N(CC(=O)Nc2cccc(C)c2C)S(=O)(=O)c2c(C)[nH]c(=O)[nH]c2=O)cc1	10.4
CCC12CN(C(=O)c3ccc(C)cc3)CC(CC)(CN(C(=O)c3ccc(C)cc3)C1)C2=O	1.35
O=C(/C=C/c1ccc(Cl)c([N+](=O)[O-])c1)c1ccc(O)cc1	12.6
CC(=O)Oc1ccc(-c2cccc(C(=O)Oc3ccccc3)c2)cc1	14.1

Compound	hERG current change (%, negative = inhibition) at 1uM [%]
COc1ccc(C)cc1NC(=S)Nc1ccccc1SC	4.16
CCCc1c(C)nn(C(=O)/C(C#N)=N/Nc2ccccc2[N+](=O)[O-])c1C	15.9
Cc1ccc(CNc2ncc(-c3ccc4c(c3)OCO4)n2C)cc1.O=C(O)C(=O)O	-10
Br.Oc1ccc(-c2cn3ccccc3n2)cc1	6.23
COc1cc(OC)cc(C(=O)NCC(=O)OCC(=O)NC(C)(C)C)c1	15.1
CCCCCCC(=O)NCC(=O)OCC(=O)c1ccccc1	-2.3
Cc1csc(SCC(=O)Nc2nccs2)n1	10
O=C(NCc1ccc(Cl)cc1)c1cccc(NC2=NC3CS(=O)(=O)CC3S2)c1 (stereo not shown)	0.469
COc1cc(Br)c(CN2CCCN(C)CC2)cc1OC	8.5
NC(=O)CNCCC(c1ccccc1)c1ccccc1	-3.29
CCC(C(=O)NCCc1ccc(OC)cc1OC)n1nc(C)n2c(cc3occc32)c1=O (stereo not shown)	0.58
CCOc1ccc(S(=O)(=O)N2Cc3ccccc3CC2C(=O)O)cc1 (stereo not shown)	15.8
OCC(O)C(O)C(O)C(O)C1NCCS1 (stereo not shown)	9.15
COC(=O)c1ccc(N2NC(=O)/C(=C/c3ccc(OC)c(OC)c3)C2=O)cc1	14.7
CCC1=NC(c2ccc(OC)cc2OC)N(O)C1(C)C (stereo not shown)	0.757
Cn1nc(C(=O)N2CCCCC2)c2c1-c1ccccc1S(=O)(=O)C2	13.1
CCOC(=O)c1ccc(N2CSC3=C(C#N)C(c4cccs4)CC(=O)N3C2)cc1 (stereo not shown)	12.2
COc1cc2cnc(-c3ccccc3)c(C(=O)c3ccc(F)cc3)c2cc1OC	7.27
